# In PubChem BioAssay AID1671194 (National Center for Advancing Translational Sciences (NCATS), 2021):
# Hit rate of the full screen: of about 140,000 compounds, about 240 (0.17%) were called active. This list was built around the results that the source calls inconclusive (neither active nor inactive); the mix of calls is not that of the screen. Calls come from the whole dose curve; as a rule, active = well fitted inhibition curve with a large enough effect; inconclusive = small, poorly fitted or top-dose-only effect; inactive = no such curve, though single readings can be large or run the other way. Potencies of inconclusive entries are doubtful fits and often do not repeat.
# Experiment: Primary qHTS assay for inhibitors of alpha-synuclein gene (SNCA) expression; note: nearly all actives have a fitted effect of over 45% in size;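 for activity change, negative = inhibition: plate controls were DMSO cells for no effect and cell-free wells for full effect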
# Conditions: HEK-293 SNCA-luciferase knock-in, luminescence, 24 h; activity change, negative = inhibition: at 57.2 µM (top of the series) unless noted
# Potency is the fitted concentration of half-maximal effect; tags give direction and shape of the fitted curve.
SMILES,Potency,"activity change, negative = inhibition"
COc1ccc(NC(=O)Cn2c(=O)n(Cc3ccco3)c(=O)c3sc4ccccc4c32)cc1Cl,"inconclusive: 7.08 µM [inhibitor, single point]",
O=c1c(-c2ccc(O)cc2)coc2cc(OC3O[C@H](CO)[C@H](O)[C@H](O)[C@H]3O)cc(O)c12 (some centres not stated),active: 5.41 µM,
Cc1ccc(N2CCn3c2nc2c3c(=O)n(Cc3cccc(Cl)c3)c(=O)n2C)cc1C,"inconclusive: 28.2 µM [inhibitor, single point]",
CC(C)c1ccc(NC(=O)CN2C(=O)C3(SCC(=O)N3c3ccc(F)cc3)c3ccccc32)cc1 (configuration not stated),"inconclusive: 39.8 µM [inhibitor, single point]",
Cn1cccc1CN[C@H]1[C@H](O)[C@@H](N2CCC(C(N)=O)CC2)[C@@H]2OC[C@H]1O2,"inconclusive: 12.6 µM [inhibitor, single point]",
CC1(C(=O)NCC2CC2)CCCc2cnc(Nc3ccccc3)nc21 (configuration not stated),"inconclusive: 15.8 µM [inhibitor, partial curve, poor fit]",
O=C(NCc1ccc2c(c1)OCO2)c1nc(-c2ccc(Cl)cc2)c2cnccn12,,inactive: 156%
Cc1ccc(C(=O)CC2(O)C(=O)N(CCc3ccccc3)c3ccc(Br)cc32)cc1 (configuration not stated),"inconclusive: 39.8 µM [inhibitor, single point]",
Cn1c(=O)n(C)c2cc(CNCc3ccccc3Cl)ccc21,"inconclusive: 7.08 µM [inhibitor, single point]",
COc1ccc(C(=O)Nc2ccc([C@H]3OCC(=O)N(C(C)C)[C@@H]3CO)cc2)cc1,,inactive: 8.37% [at 87.6 µM]
COC(=O)c1c(NC(=O)CS(=O)(=O)c2ccc(C)cc2)sc2c1CCCCC2,"inconclusive: 7.08 µM [inhibitor, single point]",
COc1cccc(Nc2ccnc(N3CCN(C(=O)C4CC4)CC3)n2)c1,,inactive: 64.7%
COc1ccc(C(=O)Nc2ccc([C@@H](O)[C@H]3COCC(=O)N3CC3CCCCC3)cc2)cc1,,inactive: 3.75%
COc1ccc(CCNC(=O)c2noc(-c3ccccc3F)n2)cc1OC,,inactive: 2.54%
Cc1ncccc1C(=O)N1CC(Oc2ccc(-c3nc(-c4ccccc4)no3)cc2)C1,,inactive: -53%
O=C(COc1ccc(F)cc1)NCc1nnc2c(-c3nc(C4CC4)no3)cccn12,"inconclusive: 14.1 µM [inhibitor, partial curve, poor fit]",
COCCCNc1ncnc2sc3c(c12)CCNC3,"inconclusive: 31.6 µM [inhibitor, single point]",
CCC(C(=O)Nc1ccc2c(c1)CN(Cc1cc(F)cc(F)c1)C(=O)CO2)c1ccccc1 (configuration not stated),"inconclusive: 22.4 µM [inhibitor, single point]",
O=C(NCC1CCCCC1)c1cc(-c2ccc(F)cc2)c2nncn2n1,,inactive: 15%
CS(=O)(=O)Nc1ccc(C2(C(=O)N3CCN(c4ccccn4)CC3)CCCCC2)cc1,"inconclusive: 31.6 µM [inhibitor, single point]",
Cc1ccccc1NC(=O)Cn1c(=O)n(-c2ccccc2)c(=O)c2c1cc(C)n2C,"inconclusive: 7.08 µM [inhibitor, single point]",

SMILES,Potency,"activity change, negative = inhibition"
CN(C)C(=O)N1CCCC(c2nn(-c3ccccn3)c(=O)[nH]2)C1 (configuration not stated),,inactive: 27.8% [at 87.6 µM]
O=C(c1ccccc1-c1ccccc1F)N(Cc1cccnc1)C1CC1,,inactive: -7.6%
CCOc1ccccc1C(=O)N1CCCN(c2cc(-c3ccc(Cl)cc3)[nH]n2)CC1,,inactive: -29%
Cc1ccc(-n2c(=O)c3c4c(sc3n(CC(=O)C(C)(C)C)c2=O)CCCCC4)cc1C,"inconclusive: 39.8 µM [inhibitor, single point]",
CC(C)NCC(O)COc1ccc(CC(N)=O)cc1 (configuration not stated),"inconclusive: 5.62 µM [inhibitor, partial curve, poor fit]",
CCCN(CCC)Cc1ccc(C(=O)NCc2c(C)noc2C)cc1,,inactive: 8.02%
CC1=C[C@@H](CNC(=O)c2ccnc(Cl)c2)[C@H](C(C)C)C[C@H]1Cc1nc2ccc(C)cc2[nH]1,"inconclusive: 39.8 µM [inhibitor, single point]",
Cc1nc2cccnc2n1-c1cccc(C(=O)NCc2cccc(Cl)c2)c1,"inconclusive: 39.8 µM [inhibitor, single point]",
CCOC(=O)c1ccc(NC(=O)Nc2cc3c(cc2N2CCCCC2)n(CC)c(=O)n3CC)cc1,"inconclusive: 28.2 µM [inhibitor, single point]",
CCOC(=O)Cc1ccc(NC(=O)Nc2nnc(N3CCCCC3C)s2)cc1 (configuration not stated),"inconclusive: 15.8 µM [inhibitor, partial curve, poor fit]",
Cc1nn(-c2ccc(F)cc2)c(C)c1[C@@H]1C=C[C@@H](NC(=O)c2ccco2)C1,,inactive: 89.1% [at 87.6 µM]
O=S(=O)(Nc1ccc(OC(F)(F)F)cc1)c1ccc(N2CCCCS2(=O)=O)cc1,"inconclusive: 28.2 µM [inhibitor, single point]",
Cc1nc(N2CCN(C(=O)Cc3ccccc3Cl)CC2)cc(C(F)(F)F)n1,"inconclusive: 14.1 µM [inhibitor, partial curve, poor fit]",
O=C(Nc1ccc(F)c(F)c1)c1ccc(=O)n(Cc2ccc(F)cc2)c1,"inconclusive: 39.8 µM [inhibitor, single point]",
COc1ccc(C)cc1NC(=O)N1CCCC1c1nncn1C1CCCC1 (configuration not stated),,inactive: 4.82%
O=C1COc2ccc(-c3ccccc3F)nc2CN1Cc1ccccc1,,inactive: -29.2% [at 87.6 µM]
Cc1ccc(NC(=O)C2CCC(CNS(=O)(=O)c3cccs3)CC2)cc1C (configuration not stated),"inconclusive: 22.4 µM [inhibitor, single point]",
O=C(O)CCCC(=O)N[C@H]1CO[C@H]2[C@@H]1OC[C@@H]2Nc1nccc(-c2ccc(-c3ccccc3)cc2)n1,,inactive: 19.2%
COc1ccccc1C(=O)N1CCN(c2cc(-c3cccs3)[nH]n2)CC1,,inactive: -2.46%
O=C(c1ccc(SCCO)cc1)N1CCCC(CO)(CC2CC2)C1 (configuration not stated),"inconclusive: 3.16 µM [inhibitor, full curve, poor fit]",
CCc1ccc2c(c1)c(=O)c(S(=O)(=O)c1ccc(F)cc1)cn2CC(=O)Nc1ccccc1OC,"inconclusive: 7.08 µM [inhibitor, single point]",
